Binding signal (RPM ratio (pull-down/input)) data for 31 sequences are collected here from publication PMC12820563.

Some of the results follow. The list includes weakly bound sequences.

The target of the assay is T1, MBP-FoxP3dN (UniProt Q99JB6).
T1 sequence: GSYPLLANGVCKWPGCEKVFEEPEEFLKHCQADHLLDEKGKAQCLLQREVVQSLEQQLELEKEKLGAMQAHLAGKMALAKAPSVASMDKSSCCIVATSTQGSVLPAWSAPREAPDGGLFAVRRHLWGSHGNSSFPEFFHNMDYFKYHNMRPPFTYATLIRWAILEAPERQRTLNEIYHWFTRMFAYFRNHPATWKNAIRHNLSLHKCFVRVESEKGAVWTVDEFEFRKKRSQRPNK
Description: PD-seq (MBP pull-down with sequencing). Conditions: 20 mM Tris-HCl pH 7.5, 100 mM NaCl, 1.5 mM MgCl2, 0.4 uM protein, 0.1 uM dsDNA library, 30 min, room temperature, amylose pull-down; high values mean tight binding; double strand, one strand shown.
Consider “GATGATTGTTCTCCCAGCTGATGAATTATGCGAGTCGAGTAAACAAATTTTCCTAATCTTTCTGTTCAAGCGCCATCTAC”, for which the binding signal (RPM ratio (pull-down/input)) came to 1.6.
Then “GATGATTGTTCTCCCAGCTGATGAATTGTGTAGTTCGAGTAAACAAATTTTCCTAATCTTTCTGTTCAAGCGCCATCTAC”, with 3.86; and “GATGATTGTTCTCCCAGCTGATGAATTACTCTTTTCGAGTAAACAAATTTTCCTAATCTTTCTGTTCAAGCGCCATCTAC”, with 0.279.
Then “GATGATTGTTCTCCCAGCTGATGAATTGTACCAATCGAGTAAACAAATTTTCCTAATCTTTCTGTTCAAGCGCCATCTAC”, with 0.507.
Then “GATGATTGTTCTCCCAGCTGATGAATTAAGAAAGTCGAGTAAACAAATTTTCCTAATCTTTCTGTTCAAGCGCCATCTAC”, with 0.179; and “GATGATTGTTCTCCCAGCTGATGAATTCAGACAATCGAGTAAACAAATTTTCCTAATCTTTCTGTTCAAGCGCCATCTAC”, with 0.311; and “GATGATTGTTCTCCCAGCTGATGAATTGGATAGATCGAGTAAACAAATTTTCCTAATCTTTCTGTTCAAGCGCCATCTAC”, with 0.266.
Regarding “GATGATTGTTCTCCCAGCTGATGAATTGTGAAAGTCGAGTAAACAAATTTTCCTAATCTTTCTGTTCAAGCGCCATCTAC”, the binding signal (RPM ratio (pull-down/input)) stood at 0.279.
Next, “GATGATTGTTCTCCCAGCTGATGAATTTCAAGGCTCGAGTAAACAAATTTTCCTAATCTTTCTGTTCAAGCGCCATCTAC”: 0.197; “GATGATTGTTCTCCCAGCTGATGAATTGGATGCATCGAGTAAACAAATTTTCCTAATCTTTCTGTTCAAGCGCCATCTAC”: 2.68.
Then “GATGATTGTTCTCCCAGCTGATGAATTGGGGTGCTCGAGTAAACAAATTTTCCTAATCTTTCTGTTCAAGCGCCATCTAC”, with 0.503; and “GATGATTGTTCTCCCAGCTGATGAATTGAATTTGTCGAGTAAACAAATTTTCCTAATCTTTCTGTTCAAGCGCCATCTAC”, with 1.66.
Next, “GATGATTGTTCTCCCAGCTGATGAATTATGTTCCTCGAGTAAACAAATTTTCCTAATCTTTCTGTTCAAGCGCCATCTAC”: 1.46; “GATGATTGTTCTCCCAGCTGATGAATTTTATGTGTCGAGTAAACAAATTTTCCTAATCTTTCTGTTCAAGCGCCATCTAC”: 2.49.
Take “GATGATTGTTCTCCCAGCTGATGAATTTGGAGTATCGAGTAAACAAATTTTCCTAATCTTTCTGTTCAAGCGCCATCTAC”: the binding signal (RPM ratio (pull-down/input)) was 0.673.
Next, “GATGATTGTTCTCCCAGCTGATGAATTAGGAATCTCGAGTAAACAAATTTTCCTAATCTTTCTGTTCAAGCGCCATCTAC”: 1.47.
Next, “GATGATTGTTCTCCCAGCTGATGAATTTTTCTTCTCGAGTAAACAAATTTTCCTAATCTTTCTGTTCAAGCGCCATCTAC”: 0.273; “GATGATTGTTCTCCCAGCTGATGAATTCCTATGTTCGAGTAAACAAATTTTCCTAATCTTTCTGTTCAAGCGCCATCTAC”: 0.495; “GATGATTGTTCTCCCAGCTGATGAATTCGCCTTGTCGAGTAAACAAATTTTCCTAATCTTTCTGTTCAAGCGCCATCTAC”: 0.828.
Next, “GATGATTGTTCTCCCAGCTGATGAATTCAGATGGTCGAGTAAACAAATTTTCCTAATCTTTCTGTTCAAGCGCCATCTAC”: 0.424; “GATGATTGTTCTCCCAGCTGATGAATTGCAAGGCTCGAGTAAACAAATTTTCCTAATCTTTCTGTTCAAGCGCCATCTAC”: 0.628; “GATGATTGTTCTCCCAGCTGATGAATTGTAGAGATCGAGTAAACAAATTTTCCTAATCTTTCTGTTCAAGCGCCATCTAC”: 0.337.
Regarding “GATGATTGTTCTCCCAGCTGATGAATTAGTTGTATCGAGTAAACAAATTTTCCTAATCTTTCTGTTCAAGCGCCATCTAC”, the binding signal (RPM ratio (pull-down/input)) is 5.31.
Next, “GATGATTGTTCTCCCAGCTGATGAATTTTTATGGTCGAGTAAACAAATTTTCCTAATCTTTCTGTTCAAGCGCCATCTAC”: 0.277; “GATGATTGTTCTCCCAGCTGATGAATTTAGGATGTCGAGTAAACAAATTTTCCTAATCTTTCTGTTCAAGCGCCATCTAC”: 0.523.
“GATGATTGTTCTCCCAGCTGATGAATTGCTTCGATCGAGTAAACAAATTTTCCTAATCTTTCTGTTCAAGCGCCATCTAC”: the binding signal (RPM ratio (pull-down/input)) worked out at 0.445.
Then “GATGATTGTTCTCCCAGCTGATGAATTAGTCATTTCGAGTAAACAAATTTTCCTAATCTTTCTGTTCAAGCGCCATCTAC”, with 2.06; and “GATGATTGTTCTCCCAGCTGATGAATTCTGACTTTCGAGTAAACAAATTTTCCTAATCTTTCTGTTCAAGCGCCATCTAC”, with 1.12.
Next, “GATGATTGTTCTCCCAGCTGATGAATTTTACCAGTCGAGTAAACAAATTTTCCTAATCTTTCTGTTCAAGCGCCATCTAC”: 0.19; “GATGATTGTTCTCCCAGCTGATGAATTCTTACGTTCGAGTAAACAAATTTTCCTAATCTTTCTGTTCAAGCGCCATCTAC”: 0.283; “GATGATTGTTCTCCCAGCTGATGAATTAGTAAGCTCGAGTAAACAAATTTTCCTAATCTTTCTGTTCAAGCGCCATCTAC”: 0.768.
